Consider 167 variants from the RNAGym collection of RNA variant scans (doi:10.7554/elife.90254).

Read counts are not given, so values of variants with three or more changes are uncertain.

B1: LINE1-mini (parent)
chain: GGCAGAGCUCAACACAGCGUGGCAAAGUGGCUGUGGCUAGACUGCC

The data set covers variants of B1. The experiment in a line: self-cleavage, relative activity (ratio to wild type); higher = more cleavage; in vitro, sequencing; the parent is a self-cleaving ribozyme.
For the variant G1A U9A G17C G33C, the self-cleavage stood at 0.03.

G1C C3U A25G U28C C37U: the self-cleavage was determined as 0.03.

On to G1C A16C G29U, for which the self-cleavage turned out to be 0.07.

For G1C C3U G44U, the self-cleavage is 0.23.

In the case of G1A U20A A26C U28G, the self-cleavage stood at 0.12.

In the case of G1A U20C A26U, the self-cleavage came out at 0.5.

With G1C A16G G30U U34C, the self-cleavage amounted to 0.02.

Consider G1C C23A U28C G33A U34G G36A A39C, for which the self-cleavage was determined as 0.01.

For the variant G1C C18A G27A G30U A39U, the self-cleavage was determined as 0.05.

Turning to G1C A11G G30C A39C, the self-cleavage was 0.

As to G1C A6G G17U C31A, the self-cleavage was found to be 0.09.

Turning to G1C A26U C42U, the self-cleavage is 0.

G1C C10A G29U C46U: the self-cleavage was 0.05.

For G1A U9C U32A, the self-cleavage was 0.

With G1C C3A A24G G35A G36C, the self-cleavage was 0.43.

Take G1C C13U A14U C23A G27A G33U: the self-cleavage stood at 0.02.

G1C C10A G29A: the self-cleavage was found to be 0.

With G1C C18A G22U G36C C37G C46U, the self-cleavage worked out at 0.01.

As for G1C A24U C46A, the self-cleavage was 0.09.

As to G1C C3A G7C G35U C46A, the self-cleavage was found to be 0.03.

G1C A16C U38G C42U: the self-cleavage came to 0.

In the case of G1C C13A U32G, the self-cleavage turned out to be 0.02.

As for G1C C15U G22A G29A, the self-cleavage stood at 0.18.

G1A U38C A39U: the self-cleavage turned out to be 0.31.

On to G1C C3U G22U U43G C46U, for which the self-cleavage was 0.01.

Turning to G1C A4C C15A C23A, the self-cleavage came out at 0.01.

For G1C A4C G5C A12C G30C, the self-cleavage was found to be 0.03.

As to G1A U32G G33A, the self-cleavage was determined as 0.02.

With G1C A16U G22A U38A, the self-cleavage was 0.03.

Regarding G1A G35C G36C U38A G40U, the self-cleavage was 0.08.

On to G1C C23A G30A, for which the self-cleavage is 0.08.

For G1C A16C G19C, the self-cleavage stood at 0.06.

With G1C C8U A11U, the self-cleavage stood at 0.01.

Regarding G1C A14G C23U, the self-cleavage amounted to 0.02.

As to G1C C8A C10A A12C G17C A24C G30C U34A, the self-cleavage is 0.

G1C A4U U9G U28G C37G C42A: the self-cleavage is 0.01.

Regarding G1C C23U A24C G30C U32C U38A C42A, the self-cleavage stood at 0.01.

As to G1C A16U C46A, the self-cleavage was 0.03.

G1C A12C G22C U34C A39G: the self-cleavage worked out at 0.

With G1C C3A C10A G30U, the self-cleavage came out at 0.02.

With G1A U32G C37A A39G, the self-cleavage amounted to 0.03.

Regarding G1C A6G G44U, the self-cleavage was 0.09.

With G1C C10G A11U C45A, the self-cleavage was found to be 0.02.

In the case of G1A G29U C37A, the self-cleavage stood at 0.08.

As to G1A U28A C42U, the self-cleavage turned out to be 0.43.

With G1C A12C A25G U34C G35U C37G, the self-cleavage turned out to be 0.

Take G1C C13A U32C C37U: the self-cleavage was found to be 0.01.

With G1C A6G U9G C10A, the self-cleavage is 0.02.

Consider G1C A12C A16G G40U G44A, for which the self-cleavage is 0.01.

For the variant G1A U9A C46U, the self-cleavage turned out to be 0.

As to G1C C13G A16U A39C A41C C42U, the self-cleavage came out at 0.01.

G1C A4C C8G G27U G35A C45U: the self-cleavage is 0.01.

On to G1C A4U C8A C13G G33U G40A G44A, for which the self-cleavage worked out at 0.04.

On to G1C A4C G22U, for which the self-cleavage was found to be 0.04.

As to G1A U28A C31A, the self-cleavage worked out at 0.14.

Turning to G1C C8G G29C C31G A41U U43A C45U, the self-cleavage turned out to be 0.01.

Regarding G1C A24U U32G G44C, the self-cleavage amounted to 0.04.

Consider G1C C8U A12G G27A, for which the self-cleavage worked out at 0.04.

Turning to G1C C3A A6C C15U, the self-cleavage was 0.05.

Take G1A G33C C46U: the self-cleavage came out at 0.02.

Take G1C C8A A16C G33A G36C: the self-cleavage came out at 0.06.

On to G1C C3G C18G G29U U34C, for which the self-cleavage is 0.02.

On to G1A U20A A26G U43A, for which the self-cleavage turned out to be 0.03.

Consider G1C A16U U32C A39C, for which the self-cleavage amounted to 0.01.

On to G1C A11G U28C C45U, for which the self-cleavage is 0.01.

Take G1C C3U G5C C10A C15A A39C: the self-cleavage came out at 0.02.

Turning to G1C A12C U20C U28A, the self-cleavage was determined as 0.

Regarding G1C A4C G7A G27A, the self-cleavage was determined as 0.01.

Consider G1C C18U G29U G44C, for which the self-cleavage was found to be 0.11.

On to G1C C3U C18G G21C C37A, for which the self-cleavage amounted to 0.25.

Regarding G1C C8A U20G U28C, the self-cleavage stood at 0.18.

In the case of G1C C18U G27C G35A G36U C46G, the self-cleavage came out at 0.03.

Turning to G1C A6C A11C G22C U38G, the self-cleavage was determined as 0.

Turning to G1C C10U A14G G21U, the self-cleavage stood at 0.02.

Regarding G1C C15U C23A A39C, the self-cleavage was 0.05.

G1C C3A G27U U38A: the self-cleavage was 0.04.

For G1C C23G G36A G40C, the self-cleavage turned out to be 0.05.

G1A G27U G35C A39U C42G: the self-cleavage worked out at 0.03.

Take G1C A11C C15A G44A: the self-cleavage came to 0.01.

With G1C C13U C15G A26U, the self-cleavage was 0.03.

Turning to G1C A14G G19A G27A, the self-cleavage was 0.17.

As for G1C A25G C31G, the self-cleavage turned out to be 0.01.

On to G1A G33C U38C, for which the self-cleavage was found to be 0.03.

Regarding G1C A4C C42G G44U, the self-cleavage came out at 0.

With G1A U20G A26G, the self-cleavage turned out to be 0.52.

On to G1C C23U U32A G35U A39C U43A, for which the self-cleavage was determined as 0.

G1A G30C A41U: the self-cleavage was 0.35.

For the variant G1C A11U G21A U38G, the self-cleavage is 0.

As for G1C C23G G44U, the self-cleavage was determined as 0.11.

With G1C A11G A25G C31G, the self-cleavage was found to be 0.03.

As to G1C A12C C37G, the self-cleavage amounted to 0.

Regarding G1C C10A A12C, the self-cleavage stood at 0.01.

On to G1C C18A G30C C46A, for which the self-cleavage worked out at 0.09.

Consider G1C A6G C13G C18A U28A G30C G33U, for which the self-cleavage was determined as 0.01.

In the case of G1C C15U A41U, the self-cleavage came to 0.03.

Regarding G1C A11C C31A A41C, the self-cleavage came out at 0.01.

G1C C10U A16G G36C: the self-cleavage was determined as 0.

For the variant G1C A6C A41C, the self-cleavage was found to be 0.

For G1C A14U G22U, the self-cleavage stood at 0.05.

Regarding G1C A12C G19A, the self-cleavage came to 0.03.

As to G1C A24U C31G, the self-cleavage was 0.02.

In the case of G1C C10A G40U, the self-cleavage was found to be 0.02.

For the variant G1C A11G G40A, the self-cleavage was found to be 0.

In the case of G1C A4G A14C C46U, the self-cleavage worked out at 0.04.

Turning to G1C C10A G22A U38G, the self-cleavage came out at 0.02.

G1C C10A U20G G30A: the self-cleavage was 0.01.

Consider G1A U9C A12C, for which the self-cleavage came to 0.04.

As for G1A G29U A39U, the self-cleavage was determined as 0.07.

Turning to G1C C10U G27U, the self-cleavage came out at 0.04.

Turning to G1C C18A G22A, the self-cleavage was 0.08.

For G1C A11G C18G G35U C45A, the self-cleavage amounted to 0.

Consider G1C A26C G29U C42A, for which the self-cleavage was determined as 0.01.

G1C C10A G30U: the self-cleavage amounted to 0.03.

Turning to G1C C8G C15G G21C C31U, the self-cleavage stood at 0.02.

As for G1C A12U A41U, the self-cleavage is 0.01.

Take G1C A14U A24C C46U: the self-cleavage stood at 0.

For G1C A26C A41G, the self-cleavage was 0.03.

Consider G1C C13A G21C G30C G40C, for which the self-cleavage is 0.01.

Regarding G1C C10G A14G, the self-cleavage came out at 0.01.

On to G1C C8A G19A, for which the self-cleavage stood at 0.19.

In the case of G1C A6C C10A, the self-cleavage is 0.02.

Regarding G1C A14U C46G, the self-cleavage was determined as 0.03.

As for G1A U34A C42U C46U, the self-cleavage stood at 0.04.

Take G1A G33C C37A: the self-cleavage came out at 0.05.

In the case of G1A G33U U34C C45A, the self-cleavage amounted to 0.06.

Take G1C A6U G7U: the self-cleavage is 0.

As for G1A U9G A11C, the self-cleavage is 0.04.

As to G1C A6C A14U, the self-cleavage was 0.04.

In the case of G1C A12U G36U, the self-cleavage was 0.

As for G1C C3G C15A, the self-cleavage amounted to 0.03.

As to G1C A16U G33U, the self-cleavage was 0.

On to G1C A24G A41G, for which the self-cleavage came out at 0.03.

In the case of G1C C18G A26G G36U, the self-cleavage stood at 0.01.

Take G1C C3G G7A G29C C42G: the self-cleavage stood at 0.33.

Turning to G1C C3U G17A A24U, the self-cleavage stood at 0.03.

As to G1C A25G U32C U38C G40A, the self-cleavage stood at 0.01.

As for G1C C15G G27C U34A A39U C42G, the self-cleavage turned out to be 0.

Regarding G1A U9C C15U G33C, the self-cleavage turned out to be 0.04.

Take G1C C15A G30C U34C: the self-cleavage amounted to 0.

For G1C C3U A4C U28A, the self-cleavage was 0.03.

As to G1C C10A G19A, the self-cleavage was found to be 0.01.

Turning to G1C A14U G30A, the self-cleavage came out at 0.04.

Take G1C C15U C37U: the self-cleavage was determined as 0.01.

Take G1C C3U A14G A16U U20A G22C G30C U34A U43C: the self-cleavage came to 0.1.

Take G1C C13A G35U: the self-cleavage is 0.13.

Turning to G1A G30C G35C, the self-cleavage amounted to 0.08.

As for G1C C18U C31G, the self-cleavage is 0.

For G1C A4U C10U C42G, the self-cleavage was 0.01.

As to G1C A11G A12G A26U C46A, the self-cleavage was found to be 0.01.

With G1C C3G U38A, the self-cleavage is 0.11.

For the variant G1C A12C C31G U43A, the self-cleavage amounted to 0.

Consider G1A U20A G44C, for which the self-cleavage was found to be 0.21.

In the case of G1C A26G U43G, the self-cleavage is 0.11.

For the variant G1C C8G G21U U28A U34C C46A, the self-cleavage came to 0.01.

On to G1C A12U C18U G36C G44A, for which the self-cleavage amounted to 0.02.

For G1A G33A G36C C45U, the self-cleavage stood at 0.02.

In the case of G1C A4G G7U U9C G21U A24U C37G, the self-cleavage was found to be 0.03.

For G1C A24U A25G U38G C45A, the self-cleavage stood at 0.02.

For G1A G29U G40U, the self-cleavage was 0.11.

With G1A U20G G27U, the self-cleavage came out at 0.93.

On to G1A G27U U32G C42U, for which the self-cleavage is 0.06.

For the variant G1C C3U C8U C13U C15A G21A A26C, the self-cleavage was 0.11.

Turning to G1C A6G A16G G29U, the self-cleavage came to 0.03.

On to G1C C15U G17C C31U G36U, for which the self-cleavage was 0.02.

With G1C C8U C10G C13A G44C, the self-cleavage worked out at 0.01.

As to G1C C8U G22C G30A A39C, the self-cleavage was found to be 0.02.

Take G1C C3U C10A G21A: the self-cleavage turned out to be 0.01.
